Reference: paper PMC4336329 (PLoS ONE, 2015)
About 2,200 (0.71%) of roughly 310,000 compounds showed an effect of 50% or more. Effects have a minus sign here. The list shows a part of the results.

Target: human ether-à-go-go-related gene (hERG) potassium channel (human, UniProt Q12809)
Assay: primary screen, population patch clamp on CHO cells stably expressing hERG

Sequence of human ether-à-go-go-related gene (hERG) potassium channel (Q12809 whole entry, looked up): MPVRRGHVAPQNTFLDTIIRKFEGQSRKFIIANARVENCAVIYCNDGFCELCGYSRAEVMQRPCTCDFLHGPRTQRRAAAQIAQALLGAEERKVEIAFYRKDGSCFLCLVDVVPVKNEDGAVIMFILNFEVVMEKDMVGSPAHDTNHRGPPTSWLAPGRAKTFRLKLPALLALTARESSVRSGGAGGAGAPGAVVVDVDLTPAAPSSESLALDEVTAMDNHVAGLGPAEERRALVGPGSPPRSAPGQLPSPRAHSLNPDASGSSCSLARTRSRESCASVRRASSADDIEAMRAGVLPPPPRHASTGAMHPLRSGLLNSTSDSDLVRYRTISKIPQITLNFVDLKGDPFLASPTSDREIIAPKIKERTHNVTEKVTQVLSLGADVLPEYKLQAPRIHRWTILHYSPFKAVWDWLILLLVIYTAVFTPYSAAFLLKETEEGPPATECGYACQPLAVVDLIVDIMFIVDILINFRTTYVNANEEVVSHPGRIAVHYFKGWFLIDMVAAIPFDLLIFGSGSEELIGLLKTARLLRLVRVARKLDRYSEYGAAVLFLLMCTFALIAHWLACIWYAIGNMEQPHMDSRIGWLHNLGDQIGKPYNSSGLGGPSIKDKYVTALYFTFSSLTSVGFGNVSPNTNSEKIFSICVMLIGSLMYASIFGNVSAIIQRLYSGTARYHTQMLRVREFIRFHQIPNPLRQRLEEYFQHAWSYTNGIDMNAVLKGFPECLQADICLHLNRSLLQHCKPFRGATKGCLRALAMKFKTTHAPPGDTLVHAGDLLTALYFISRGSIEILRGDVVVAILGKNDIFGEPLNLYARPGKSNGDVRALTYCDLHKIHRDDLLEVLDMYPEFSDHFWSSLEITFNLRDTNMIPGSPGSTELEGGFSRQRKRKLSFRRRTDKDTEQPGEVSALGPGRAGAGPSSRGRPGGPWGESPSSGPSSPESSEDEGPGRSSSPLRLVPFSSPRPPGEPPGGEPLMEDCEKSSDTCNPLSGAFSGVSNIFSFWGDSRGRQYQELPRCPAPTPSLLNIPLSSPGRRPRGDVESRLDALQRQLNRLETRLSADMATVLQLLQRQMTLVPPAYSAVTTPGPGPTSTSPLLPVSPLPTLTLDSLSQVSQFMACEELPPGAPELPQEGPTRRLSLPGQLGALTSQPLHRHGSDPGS

Structure (SMILES)	hERG current change (%, negative = inhibition) at 1uM [%]
COc1ccccc1OCCCN1C(=O)C(=O)c2cccc(C)c21	8.36
COc1ccccc1CNC(=O)COC(=O)c1ccccc1SCC(=O)N1CCCC1	1.19
O=C(Nc1ccccc1)NC1CCCCNC1=O (stereo not shown)	10.8
COc1ccc(S(=O)(=O)N2CCC(C(=O)Nc3nnc(C)s3)CC2)cc1OC	20.4
Cc1cccc(NC(=O)Cn2c(=O)oc3ccccc32)c1	12.1
Brc1ccc(-c2nc3ncccn3c2NC2CCCCC2)o1	1.03
COCCN1C2=C(C(=O)CC(C)(C)C2)C(c2ccc(OC)c(OC)c2)C2=C1CC(C)(C)CC2=O	8.61
CCCC(=NCC(=O)O)C1=C(O)C(C(=O)OC)C(C)(C)CC1=O (stereo not shown)	3.3
O=C1NC(=S)N/C1=C/c1ccc2c(c1)OCO2	9.68
COc1ccc(S(=O)(=O)N2CCCCCC2)cc1C(=O)Nc1cc(C)ccn1	-12.7
COc1cccc(N(CC(=O)Nc2cccc(N(C)S(C)(=O)=O)c2)S(C)(=O)=O)c1	16
COc1ccc(/C=N/Nc2nc(N3CCCC3)nc(N3CCCC3)n2)cc1	14.3
CCOC(=O)C1(Cc2cccc(F)c2)CCN(Cc2cnc(C)s2)CC1	7.22
CNc1snc(C)c1C(=O)OC(C)C(=O)Nc1ccccc1 (stereo not shown)	6.39
CNC(=O)c1sc(SC)cc1-c1ccc(Cl)cc1	8.73
CCN(C(=O)c1c(-c2ccccc2Cl)noc1C)C1CCCCC1	11.4
O=[N+]([O-])c1cc(Cl)ccc1-c1nc(-c2ccncc2)no1	-0.683
N#CCCN(Cc1cccnc1)C(=S)NC1CC2C=CC1C2 (stereo not shown)	8.45
COC(=O)C1=C(C)OC(N)=C(C#N)C12C(=O)Nc1ccccc12 (stereo not shown)	1.84
COc1cc(NC(=O)CSc2nncn2C)cc(OC)c1OC	6.96

Structure (SMILES)	hERG current change (%, negative = inhibition) at 1uM [%]
CCCCCCCCCC(=O)Nn1cnc2ccccc2c1=O	6.75
CCOC(=O)CCC(=O)Nc1ccc(S(=O)(=O)N2CCc3ccccc32)cc1	14.4
CC(=N\O)/C(CN(C)C)=N/O	6.42
O=C(Nc1ccc(-c2ccccc2)cc1)c1ccccc1	8.19
Cc1ccccc1OCC(=O)N1CCCCCCC1	23.5
COc1cc(OC)cc(C(=O)Nc2nc(CC(=O)NCc3ccc(F)cc3)cs2)c1	8.38
Cc1ccc(OCCNC(=O)C2CCCCC2)cc1	0.357
CSc1ccccc1NC(=O)CN(Cc1ccc(Cl)cc1)S(C)(=O)=O	5.03
O=C(COC(=O)c1cccc(S(=O)(=O)N2CCCCC2)c1)NC1CCCc2ccccc21 (stereo not shown)	8.18
CO/N=C/c1ccc(Oc2ccc(C)cc2)c([N+](=O)[O-])c1	7.97
O=C(Nc1nnc(-c2ccccc2SCc2ccccc2)s1)Nc1ccccc1F	18
COc1cc(/C(C)=N/NC(=O)CSc2nc3ccccc3[nH]2)ccc1O	6.41
COC(=O)COc1cccc2c(=O)n(CC(=O)N3CCC(C)CC3)ccc12	7.87
CC(=O)Nc1ccc(Nc2nc(C)c([N+](=O)[O-])c(N(C)c3ccccc3)n2)cc1	8.02
CN(Cc1cn(C)nc1-c1cccc(Cl)c1)C1CCOCC1	15.5
COc1cccc(NC(=O)CN(C)C(=O)c2cc3ccccc3cc2OC)c1	-0.965
CCOC(=O)c1ccccc1NC(=O)c1ccc2nc[nH]c2c1	14.5
COc1ccc(CC(=O)NNc2ncnc3c2cnn3C)cc1	8
CC(NC(=O)c1ccc2c(c1)OCO2)C1CCCO1 (stereo not shown)	-0.0414
CCOc1ccc(C(c2nnnn2Cc2ccccc2)N2CCN(C(=O)c3ccco3)CC2)cc1.Cl (stereo not shown)	-7.21

Structure (SMILES)	hERG current change (%, negative = inhibition) at 1uM [%]
CCOc1ccc(NC(=O)CN(C)C(=O)CC2OC(=O)c3ccccc32)cc1OCC (stereo not shown)	13.7
COc1cccc(NC(=O)CN(C)CC(=O)Nc2ccc(Br)cc2)c1	7.26
COc1cc(CNCCc2ccccc2)ccc1OCc1ccc(Cl)nc1.Cl	-0.117
N#Cc1cc(C(=O)c2cc(F)ccc2O)cn(Cc2ccccc2)c1=O	17.3
CC(C)Cn1c(N)c(C(=O)COC(=O)/C=C/c2cccs2)c(=O)n(C)c1=O	2.04
Cc1cc(C=O)c(C)n1-c1ccc(Oc2ccc([N+](=O)[O-])cn2)cc1	1.07
CCOc1ccc(-c2nnc(Nc3ccc(OC)c(C(=O)N4CCCCC4)c3)c3ccccc23)cc1	4.28
COC(=O)/C=C1/SC(=Nc2ccc(Cl)c(Cl)c2)NC1=O	7.18
CN1CCc2c(sc(NC(=O)C3CCN(S(=O)(=O)c4cccs4)CC3)c2C(N)=O)C1.Cl	-4.56
Cc1ccc(C(=O)N/C(=C\c2ccco2)C(=O)N2CCOCC2)cc1C	6.26
CN(C)S(=O)(=O)c1cccc(-c2csc(=Nc3ccccc3)n2CCCN2CCOCC2)c1	4.28
CCOC(=O)C1=C(N)OC2=C(C(=O)CCC2)C1c1cccs1 (stereo not shown)	9.74
O=C(CN(C(=O)CNS(=O)(=O)c1ccc(F)cc1)C1CCCC1)NCc1ccco1	1.79
Cc1cc(OCCCCN2C(=O)NC(C)(C)C2=O)ccc1[N+](=O)[O-]	10.1
CCCC(=O)Nc1nnc(Cc2ccccc2)s1	7.14
Cn1c2ccc(Br)cc2c2nnc(SCC(=O)O)nc21	11.3
CCCCC(C(=O)O)C(C)CC(=O)NNC(=O)c1ccco1 (stereo not shown)	11
CCNC(=S)NNC(=O)c1ccc(=O)n(Cc2ccccc2)c1	14.4
